The series has as its system ATP. Description: switch fluorescence ratio, 500 uM ATP over buffer (Cy3 cluster intensity, sum of 5 cycles each) (fold (ratio)); higher = stronger signal-on switching upon ATP binding; sequences stand for … in TCGTCGGCAGCGTCAGATGTGTATAAGAGACAGTTTTTTTTTTTTTTTTTTTTTTTTT…TC. Conditions: aptamer strand: ATP DNA aptamer (quencher-CACCTGGGGGAGTATTGCGGAGGAAGG + anchor), 100 nM annealed; ATP concentration: 500 uM; one replicate. In outline:
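The quencher-labelled ATP aptamer, at 100 nM, was annealed to Cy3-labelled switching-strand clusters on a modified Illumina MiSeq flow-cell. The clusters were imaged in selection buffer, then after 15 min with 500 uM ATP at 22 °C, and this buffer/ATP cycle ran five times with NaOH stripping and re-annealing between runs. Per-cluster fluorescence ratios, summed target-cycle over summed buffer-cycle Cy3 intensity, were averaged per switch-domain sequence. Clusters outside 100-1000 RFU were excluded.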

Sequences with one replicate were seen in a single cluster, so their values are uncertain.
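Further: ATP exposure 15 min at 22 °C before imaging.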

As to TTATACTACG, the switch fluorescence ratio is 1.05.
Consider TCTGTCTCGA, for which the switch fluorescence ratio turned out to be 1.
For AGTAGACGC the value was 1.09; for AGAGTCGTTC, 0.988; for TGTCTGCTTG, 0.955.
Next, AAATTGGTCG: 1.07; TGATCCGATT: 1.02.
Next, GTTGATCGGG: 0.971.
As to GTACACGTGC, the switch fluorescence ratio stood at 0.989.
For GTTGGATCCT the value was 1.04; for GGTGATGGCA, 1.08.
ACAGTGCTCA: the switch fluorescence ratio amounted to 1.01.
On to AAAGGTCACA, for which the switch fluorescence ratio came out at 1.04.
As for GGTAAGTACA, the switch fluorescence ratio came to 1.33.
On to TACACGCTTT, for which the switch fluorescence ratio was 0.992.
As to AATGATGACA, the switch fluorescence ratio is 1.04.
For TTTGGTCTAC the value was 1.03; for CATTGTAGAG, 0.969.
For ACCATGAGAC the value was 1.03; for GCCGTCTGGT, 0.992.
For CCTTCGTCAG the value was 4.96; for GGAGGGCAGC, 0.947; for TGATGTGTAT, 1.03.
As to CTGAGTGTTT, the switch fluorescence ratio stood at 0.963.
In the case of AGGCGGCCTA, the switch fluorescence ratio is 1.
Turning to TTCGTTACGT, the switch fluorescence ratio was 0.993.
For GTGCCTTGGG the value was 1.01; for AATTTGAAAA, 1.02.
GGATCATAGC: the switch fluorescence ratio was determined as 0.979.
On to AATGAGCGAA, for which the switch fluorescence ratio was 1.02.
Next, TTGGGTATT: 1.02; ATTCTGTTGA: 1.02.
Next, ATCTTCCCTA: 0.987; CTGGGTCGTA: 0.943; TTTGGTTAG: 0.936.
For CACATTACTA the value was 1.34; for TCGCAACTAT, 3.4.
Regarding CATGTTTAGC, the switch fluorescence ratio amounted to 0.992.
GCTTGGATAG: the switch fluorescence ratio worked out at 1.
Take TAATCGGGTC: the switch fluorescence ratio worked out at 1.01.
For the sequence TAGGCAAAGC, the switch fluorescence ratio amounted to 1.02.
For TCAATCTTTT the value was 1.01; for GGAAAAGCGC, 0.99.
Next, CGTTTATGCA: 1.03.
For GAAATTAGCA the value was 1; for GGACTACTAG, 1.07; for GCATCGGACC, 1.12.
Regarding ACGAGCTGTT, the switch fluorescence ratio turned out to be 1.08.
For CGGAGGTAG the value was 1.01; for CAGATACGT, 1.05; for TAGAGTGCTT, 0.99.
Next, GGAAATACGG: 1.09.
For the sequence CCCGTGCAAG, the switch fluorescence ratio was found to be 1.28.
For TTATGGACCA the value was 0.984.
Regarding ATCGCTTAGA, the switch fluorescence ratio is 1.
On to CATGACCCTT, for which the switch fluorescence ratio worked out at 1.03.
Next, TTGTTCGCGC: 1.03.
For GACCCGGTTT the value was 0.984; for GGACCATTTT, 0.984; for AGGCGTTACA, 1.01.
For CGTTGTCTTG the value was 0.974; for AAAACAGAGG, 0.987.
For ATGCGTCTCA, the switch fluorescence ratio was 1.02.
Next, CGTAGTCTC: 1.34; CTCTGGTCAG: 1.05; CTTGTGGCTC: 0.939.
As to ACGAGATTTT, the switch fluorescence ratio amounted to 1.01.
